# According to PMC4336329 (PLoS ONE, 2015):
# Among all 310,000 compounds or so, about 2,200 (0.71%) showed an effect of 50% or more. The effect is printed as a negative number. The list shows a part of the results.
# Biological target: human ether-à-go-go-related gene (hERG) potassium channel (human, UniProt Q12809)
# Assay: primary screen, population patch clamp on CHO cells stably expressing hERG
# Chain of human ether-à-go-go-related gene (hERG) potassium channel (Q12809 whole entry, looked up): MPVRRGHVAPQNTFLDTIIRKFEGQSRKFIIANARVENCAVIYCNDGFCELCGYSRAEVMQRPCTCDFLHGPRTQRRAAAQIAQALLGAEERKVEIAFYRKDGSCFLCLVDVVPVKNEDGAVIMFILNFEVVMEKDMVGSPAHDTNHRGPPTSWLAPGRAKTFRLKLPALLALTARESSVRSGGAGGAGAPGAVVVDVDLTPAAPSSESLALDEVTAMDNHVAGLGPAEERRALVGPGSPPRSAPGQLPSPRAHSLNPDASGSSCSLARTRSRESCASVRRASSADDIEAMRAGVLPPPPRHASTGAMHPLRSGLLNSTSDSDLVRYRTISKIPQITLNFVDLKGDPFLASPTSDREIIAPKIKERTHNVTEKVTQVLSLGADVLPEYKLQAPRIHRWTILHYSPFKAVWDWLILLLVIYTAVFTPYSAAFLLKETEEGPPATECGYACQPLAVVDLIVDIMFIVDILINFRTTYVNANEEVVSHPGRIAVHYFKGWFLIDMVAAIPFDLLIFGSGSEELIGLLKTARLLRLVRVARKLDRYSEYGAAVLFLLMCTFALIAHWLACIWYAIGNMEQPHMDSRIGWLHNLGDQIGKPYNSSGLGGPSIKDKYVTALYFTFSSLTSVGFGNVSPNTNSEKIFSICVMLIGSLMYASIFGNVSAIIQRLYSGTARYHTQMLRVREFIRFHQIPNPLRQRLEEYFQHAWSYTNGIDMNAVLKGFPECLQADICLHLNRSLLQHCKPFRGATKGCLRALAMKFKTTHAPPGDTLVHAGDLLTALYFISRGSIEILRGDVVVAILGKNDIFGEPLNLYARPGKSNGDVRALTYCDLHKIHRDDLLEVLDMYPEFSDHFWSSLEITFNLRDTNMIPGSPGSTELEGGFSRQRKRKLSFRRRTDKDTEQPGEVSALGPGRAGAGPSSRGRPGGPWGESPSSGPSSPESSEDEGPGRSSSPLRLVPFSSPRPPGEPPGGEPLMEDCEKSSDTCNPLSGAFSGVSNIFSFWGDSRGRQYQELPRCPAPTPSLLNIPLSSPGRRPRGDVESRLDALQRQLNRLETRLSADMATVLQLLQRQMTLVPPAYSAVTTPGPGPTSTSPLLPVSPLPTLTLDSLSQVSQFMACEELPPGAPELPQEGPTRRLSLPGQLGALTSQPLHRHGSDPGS
row,SMILES,"hERG current change (%, negative = inhibition) at 1uM"
1,O=c1[nH]nc(Cc2ccccc2)c2ccccc12,11.9%
2,CC1CCCN(CCCNC(=O)c2ccc3c(c2)N(Cc2ccccc2F)C(=O)c2ccccc2S3(=O)=O)C1 (centres unmarked),19.7%
3,COC(=O)C(C#N)C(=C1C(=O)CC(C)(C)CC1=O)c1ccc(O)cc1 (centres unmarked),17.9%
4,COCCNC(=O)CN1c2ccccc2CC1C (centres unmarked),6.18%
5,O=C(COC(=O)/C=C/c1ccccc1F)Nc1nnc(-c2ccccc2)o1,7.16%
6,CCc1cccc(NC(=O)CCc2nc3sc4c(c3c(=O)[nH]2)CCCC4)c1,-0.886%
7,O=C(Nc1ccc(F)cc1)/C(=C1/CCCCCN1)[N+](=O)[O-],10.6%
8,CCCNC(=S)N1CCC(c2nc3cc(C)c(C)cc3[nH]2)CC1,4.91%
9,OCCN(Cc1ccccc1)Cc1nc(CC2CC2)no1,4.94%
10,COc1ccc(Cl)cc1NC(=O)NCc1cccnc1,5.53%
11,CCCCC(=O)NC(c1ccc(OC)c(OC)c1)c1c(O)ccc2ccccc12 (centres unmarked),7.85%
12,CCOc1ccc(NC(=O)CCn2ccnc2)cc1,17.3%
13,Cc1ccc(C(=O)NNC(=O)CSc2n[nH]c(-c3cccnc3)n2)cc1,15.6%
14,COc1ccc(NC(=O)c2cccc(C#N)c2)cc1NS(=O)(=O)c1ccc(F)cc1,12.9%
15,CC1CN(C(=O)c2cccn(Cc3c(Cl)cccc3Cl)c2=O)CC(C)O1 (centres unmarked),15.9%
16,CCOC(=O)NC(c1cccc(Cl)c1)C1CCCCCC1=O (centres unmarked),3.02%
17,NNC(=O)c1cncc(Br)c1,12.1%
18,O=C(CSc1ncccn1)N1CCC(Cc2ccccc2)CC1,8.09%
19,Cn1c(=O)n(C)c2cc(S(=O)(=O)NCCc3ccccc3)ccc21,18.7%
20,O=C(CS)Nc1ccc2ccccc2c1,18.4%
21,CC(NCC1(N2CCOCC2)CCCCC1)C(=O)Nc1ccc(Cl)cc1Cl.O=C(O)C(=O)O (centres unmarked),-44.9%
22,CCN(CCCNC(=O)CCn1c(=O)[nH]c2ccsc2c1=O)c1ccccc1,10.6%
23,c1ccc(Nc2nc(-c3ccncc3)cs2)cc1,9.66%

row,SMILES,"hERG current change (%, negative = inhibition) at 1uM"
1,O=C(O)c1cccc(-c2ccc(/C=N/NC(=O)c3cccnc3)o2)c1,8.89%
2,CSCCC(NS(=O)(=O)c1ccccc1F)C(=O)NCc1cccs1 (centres unmarked),12.8%
3,CCNC(=S)NNC(=O)c1cccnc1,15.4%
4,O=C(NC1CCCCC1)c1ccc(S(=O)(=O)N2CCOCC2)cc1,8.06%
5,Cl.Cn1cccc1CNCCc1ccccc1,7.61%
6,OCc1ccc(N=Nc2ccccc2)cc1,4.74%
7,Cc1ccc(CN(C(=O)c2csnn2)C(C(=O)NC2CCCC2)c2cccnc2)cc1 (centres unmarked),7.72%
8,Cc1cccc(NC(=S)NCCCN2CCOCC2)c1,-1.73%
9,COc1ccc(-n2c(C)nc3c(cnn3-c3ccc(C)cc3)c2=O)cc1,4.18%
10,CC(=O)Oc1cccc(N2C(=O)C3C4C=CC(CC4)C3C2=O)c1 (centres unmarked),13.1%
11,CN(C)S(=O)(=O)c1ccc(C(=O)Nc2ccc(CN3CCCC3)cc2)cc1,-1.22%
12,COc1ccccc1/C=C/C(=O)NCCC1=CCCCC1,12.3%
13,Cc1cc(C)n2[nH]c(=O)c(N=Nc3cccc(C(F)(F)F)c3)c2n1,-4.56%
14,Cc1ccc(NC(=O)CN2CCOCC2)cc1,13.3%
15,CCc1cc2cc3c(cc2nc1SCC(=O)Nc1cc(C)on1)OCO3,12.8%
16,COc1ccc2oc(=O)c(-c3nnc(NCc4ccco4)s3)cc2c1,9.23%
17,CCc1ccc(CN(C)C(=O)c2cc(COc3cccc(C(F)(F)F)c3)on2)nc1,6.84%
18,CCOC(=O)C1(C)/C(=N/Nc2ccccc2)C(=O)C(=O)N1c1ccccc1 (centres unmarked),-3.13%
19,COc1ccc(CCNC(=O)CN2CCC(C(N)=O)CC2)cc1,14.2%
20,COc1ccc(NC(=O)C2CCN(S(=O)(=O)c3cccc4nonc34)CC2)cc1OC,9.2%
21,CC(C)(C)NC(=O)C(c1cccs1)N(Cc1cccs1)C(=O)c1ccc(CN2CCOCC2)o1 (centres unmarked),12.9%
22,CCCCn1c(=O)c(C(=O)Nc2ccccc2Cl)c(O)c2ccccc21,13.4%
23,Cc1cc(C(=O)Nc2ccc(Br)cc2)c2ccccc2n1,15.3%

row,SMILES,"hERG current change (%, negative = inhibition) at 1uM"
1,COc1ccc(CCNC(=O)COc2ccc([N+](=O)[O-])cc2)cc1,11.2%
2,COc1ccc(S(=O)(=O)N2CCN(C(=O)c3ccco3)CC2)cc1C(C)(C)C,13.1%
3,COCCCN=C1NN=C(c2cc(C)n(Cc3ccccc3Cl)c2C)CS1,7.62%
4,O=C(N/N=C/c1ccncc1)c1ccccc1[N+](=O)[O-],8.18%
5,C/C(=N\O)C(=O)OC1CC(C)CCC1C(C)C (centres unmarked),-0.922%
6,CC(C)NC(=O)NC(=O)CSc1nnc(C(F)(F)F)n1C,10.2%
7,CCOc1ccccc1NC(=O)CCNC(=O)c1ccco1,14.5%
8,CCN(Cc1ccncc1)C(=S)Nc1ccc(Cl)cc1,9.9%
9,Cc1ccc(S(=O)(=O)NN2C(=O)/C(=C/c3cccnc3)SC2=S)cc1,8.11%
10,O=S(=O)(c1ccc(Cl)cc1)N1CCN=C1SCc1cccnc1,7.2%
11,NC(=O)C1CCCN(C(=S)Nc2cccc3ccccc23)C1 (centres unmarked),0.957%
12,C#CC[N+](C)(C)CCN1C(=O)C2C(c3ccccc3)C=CC(c3ccccc3)C2C1=O.[Br-] (centres unmarked),9.67%
13,Cc1noc(C)c1C(=O)NCCCc1ccccc1,13%
14,CN(C)S(=O)(=O)c1cccc(NC(=S)N/N=C/C(=O)c2ccccc2)c1,-2.1%
15,COc1ccc(Cl)cc1S(=O)(=O)Oc1ccc(NC(C)=O)cc1,-58.8%
16,COc1ccc(NC(=O)C#Cc2ccccc2)cc1,14.6%
17,COC(=O)CN1C(=O)c2cccc3cccc1c23,3.72%
18,O=C(O)c1c2c(nc3ccccc13)/C(=C/c1cccc([N+](=O)[O-])c1)CCC2,15.8%
19,C=CCn1c(SCc2cccc(F)c2)nc2cc(C(=O)N3CCC(C(N)=O)CC3)ccc2c1=O,4.53%
20,O=C(COC(=O)Cc1ccc(S(=O)(=O)N2CCOCC2)s1)Nc1ccc2c(c1)OCO2,15.1%
21,Cc1ccc2nc(N(CCCN(C)C)C(=O)c3ccco3)sc2c1.Cl,-9.63%
22,O=C(COc1ccccc1)N1CCN(C(=O)COc2ccccc2)CC1,-1.64%
23,[N-]=[N+]=CC(=O)C(O)(c1ccccc1)C(Cl)c1ccccc1 (centres unmarked),15.4%

row,SMILES,"hERG current change (%, negative = inhibition) at 1uM"
1,COc1ccc(C(=O)C23CN4CN(CN(C4)C2)C3)cc1,8.66%
2,CCCS(=O)(=O)N1CCN=C1SCc1cccc(C)c1,11.3%
3,O=C(COC(=O)CC1SC(N2CCCC2)=NC1=O)Nc1c(F)c(F)c(F)c(F)c1F (centres unmarked),5.29%
4,Cc1ccc(/C=N/NC(=O)c2cccc(S(=O)(=O)N3CCOCC3)c2)o1,8.14%
5,O=C(Cc1ccc2c(c1)OCCO2)N1CCN(S(=O)(=O)c2cccs2)CC1,5.4%
6,N#C/C(=C\c1ccc(-c2ccccc2[N+](=O)[O-])o1)C(N)=O,7.93%
7,O=C(Cc1ccc(Cl)cc1)Nc1ccc(C(=O)N2CCCCC2)cc1,13%
8,COc1ccc(C(=O)CSc2nnc(-c3cc(C)on3)o2)cc1,9.09%
9,Cc1cccc(OCc2nnc(SCC(=O)N3CCCCC3)o2)c1,13.6%
10,O=C(NCc1ccco1)/C(=C\c1ccco1)NC(=O)c1ccc(Br)o1,1.64%
11,Cc1cc(NC(=O)c2cc(-c3cccnc3)nc3c(C)c(C)ccc23)no1,5.52%
12,CN(C)c1ccnc(SCc2ccccc2Cl)c1C#N,1.99%
13,CCOc1ccccc1NC(=O)N1CCC2(CC1)OCCO2,11.8%
14,Cc1ccc2nc(CCc3nc4ccc(C)cc4o3)oc2c1,6.32%
15,COc1ccc(S(=O)(=O)N2CCOCC2)cc1C(=O)NCc1ccccc1CN1CCCC1,3.13%
16,CC(C)c1ccc(-c2nnn(CC(=O)N3CCCCC3)n2)cc1,7.35%
17,Cc1ccc(OCC(=O)Nc2cc(C(=O)O)cc(C(=O)O)c2)cc1C,6.76%
18,Cc1noc(C)c1COC(=O)C1CCN(S(=O)(=O)c2ccc(F)cc2)CC1,-2.72%
19,C/C(CC(=O)Nc1ccc(N(C)C)cc1)=N\NC(=O)c1ccccn1,9.68%
20,CCOC(=O)N1CCC(NC(=O)C(NS(=O)(=O)c2ccc3c(c2)CCN3C(=O)CC)C(C)C)CC1 (centres unmarked),-2.08%
21,COc1cc2cc(C(=O)Nc3ccc4c(c3)OCCO4)[nH]c2cc1OC,15.6%
22,CC(=O)C1=C(C)NC(=O)NC1c1ccccc1 (centres unmarked),10.7%
23,CC(C)(C)NC(=O)NC(=O)CN1CCN(S(=O)(=O)c2ccc3c(c2)OCCO3)CC1,3.9%
